Some of the results follow.
B1: PhoQ; a variant is named by its letters at X, in order, P23837 (parent)
chain: MKKLLRLFFPLSLRVRFLLATAAVVLVLSLAYGMVALIGYSVSFDKTTFRLLRGESNLFYTLAKWENNKLHVELPENIDKQSPTMTLIYDENGQLLWAQRDVPWLMKMIQPDWLKSNGFHEIEADVNDTSLLLSGDHSIQQQLQEVREDDDDAEMTHSVAVNVYPATSRMPKLTIVVVDTIPVELKSSYMVWSWFIYVLSANLLLVIPLLWVAAWWSLRPIEALAKEVRELEEHNRELLNPATTRELTSLVRNLNRLLKSERERYDKYRTTLTDLTHSLKTPLXXLQXXLRSLRSEKMSVSDAEPVMLEQISRISQQIGYYLHRASMRGGTLLSRELHPVAPLLDNLTSALNKVYQRKGVNISLDISPEISFVGEQNDFVEVMGNVLDNACKYCLEFVEISARQTDEHLYIVVEDDGPGIPLSKREVIFDRGQRVDTLRPGQGVGLAVAREITEQYEGKIVAGESMLGGARMEVIFGRQHSAPKDE

Variants of: B1
Experiment: enrichment ratio after two sorts for PhoP signalling (ratio (wild type AVST 3.29)); higher = more functional
Settings: with PhoP (E. coli)

Variant	enrichment ratio
LEYA	≤ 0.25
YLSG	0.373
GHVE	≤ 0.25
GRTA	≤ 0.25
QNGC	2.23
SRGL	≤ 0.25
GPQF	≤ 0.25
VWAN	≤ 0.25
QYHC	≤ 0.25
AIMT	22.8
VWGE	≤ 0.25
QVIM	≤ 0.25
KAYR	≤ 0.25
HFMI	≤ 0.25
SIWA	≤ 0.25
IPYK	≤ 0.25
AYID	≤ 0.25
YPAE	≤ 0.25
YIAR	≤ 0.25
SGIE	≤ 0.25
AHDN	≤ 0.25
RSDE	≤ 0.25
WARK	≤ 0.25
IEGG	≤ 0.25
VPWK	≤ 0.25
KEET	≤ 0.25

Variant	enrichment ratio
EILC	≤ 0.25
GGWQ	≤ 0.25
SEQC	4.73
MQIY	≤ 0.25
LVMM	≤ 0.25
NLYF	≤ 0.25
PIFK	≤ 0.25
WRES	≤ 0.25
ANIN	≤ 0.25
IVYV	≤ 0.25
ASIF	9.44
EACR	≤ 0.25
GQFH	≤ 0.25
ICPN	0.417
GNRP	≤ 0.25
NRYN	≤ 0.25
GWNY	≤ 0.25
ENPP	≤ 0.25
NCHK	≤ 0.25
AYQR	≤ 0.25
WKGG	≤ 0.25
KTCR	≤ 0.25
TYCN	3.13
IDNM	≤ 0.25
IFVN	≤ 0.25
GHMM	≤ 0.25

Variant	enrichment ratio
PGHD	≤ 0.25
WSIA	≤ 0.25
QTPW	≤ 0.25
YRLY	≤ 0.25
FFEC	≤ 0.25
WFSP	≤ 0.25
WKGC	≤ 0.25
YRYN	≤ 0.25
HEYC	≤ 0.25
DWSG	≤ 0.25
KQVG	≤ 0.25
WGVI	≤ 0.25
MGEF	≤ 0.25
EMTM	≤ 0.25
FQGG	≤ 0.25
NKTY	≤ 0.25
RPKC	≤ 0.25
NVLN	≤ 0.25
MDLC	≤ 0.25
YVCK	≤ 0.25
KYQM	≤ 0.25
NHYC	≤ 0.25
NTSV	≤ 0.25
RPCK	≤ 0.25
DWYT	≤ 0.25
SNFD	≤ 0.25

Variant	enrichment ratio
IITP	≤ 0.25
KKVA	≤ 0.25
IMFW	≤ 0.25
QCFR	≤ 0.25
SGAN	7.18
SNSW	≤ 0.25
VWVK	≤ 0.25
SPCV	≤ 0.25
HWIL	≤ 0.25
MTTC	≤ 0.25
GTFF	≤ 0.25
NHVD	≤ 0.25
RALA	≤ 0.25
YWST	≤ 0.25
NNAI	4.06
HRKM	≤ 0.25
HTFA	≤ 0.25
HFRM	≤ 0.25
NISK	≤ 0.25
SVGM	9.35
TIIF	≤ 0.25
NYWK	≤ 0.25
EDCD	≤ 0.25
HVNP	≤ 0.25
VLHQ	≤ 0.25
CRCF	≤ 0.25

Variant	enrichment ratio
DCGV	≤ 0.25
FWYF	≤ 0.25
KMLQ	≤ 0.25
WKMT	≤ 0.25
LYAS	≤ 0.25
DRFD	≤ 0.25
QETI	1.44
KNFD	≤ 0.25
TQPN	≤ 0.25
SFLA	8.02
IMFM	≤ 0.25
ILKQ	≤ 0.25
ASTS	9.85
ISIE	≤ 0.25
VFWG	≤ 0.25
YIWF	≤ 0.25
CFAF	≤ 0.25
DMPC	≤ 0.25
VFED	≤ 0.25
NWAI	≤ 0.25
AEAG	7.71
GLWD	≤ 0.25
HQQG	≤ 0.25
DYGD	≤ 0.25
PKSK	≤ 0.25
TEQP	≤ 0.25

Variant	enrichment ratio
FCLN	3.94
VCAS	≤ 0.25
SNEL	≤ 0.25
SHCF	7.35
MRNC	≤ 0.25
VIMV	≤ 0.25
YWLY	≤ 0.25
EFSH	≤ 0.25
VEKY	≤ 0.25
HWSC	≤ 0.25
MEAM	9.82
VMER	≤ 0.25
PTLP	≤ 0.25
KLRT	≤ 0.25
YITK	≤ 0.25
EYYK	≤ 0.25
SRRC	≤ 0.25
VLHA	≤ 0.25
RLWN	≤ 0.25
AFPV	≤ 0.25
GYCL	≤ 0.25
RIYY	≤ 0.25
GKAW	≤ 0.25
